Out of some 2,300 compounds screened, about 330 (14%) showed activity.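 How the source made its calls: active = median modified Z-score above 1.96; inactive = 1.96 or below.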 This is a selection; strong and weak results do not stand in their true shares.
system: HepG2 Srxn1-GFP reporter cells (+30 nM CDDO-Me); assay: Srxn1-GFP intensity median modified Z-score relative to plate median; higher = stronger NRF2 / oxidative stress reporter activation, active = hit call of the paper; settings: 10 µM; exposure time: 24h
Procedure, shortened: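 The modified Z-score of GFP intensity was computed per plate, and the median over replicates is reported. HepG2 Srxn1-GFP BAC reporter cells in three replicate plates were treated for 24 h with compound at 10 μM plus an NRF2 activator at 30 nM (≤0.1% DMSO). Per-cell cytoplasmic GFP came from confocal images, excluding those with under 100 cells, and scaling used 1.4826 × median absolute deviation.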

Srxn1-GFP intensity median modified Z-score, inactive:
O=S(=O)(c1cccc2cnccc12)N1CCCNCC1 [euspeclibcmpd1094] -1.28
NC1CCN(c2c(F)cc3c(=O)c(C(=O)O)cn(C4CC4)c3c2Cl)C1 (configuration not stated) [euspeclibcmpd507] -0.176
CCC1(C)CC(=O)NC1=O (configuration not stated) [euspeclibcmpd442] -0.0481
COc1ccc(C(C)=O)c(OC)c1 [euspeclibcmpd1377] -0.453
CCCNC(C)(C)COC(=O)c1ccccc1 [euspeclibcmpd548] -0.301
C=C[C@@]1(C)CC(=O)[C@@]2(O)[C@](C)(O1)[C@@H](O)[C@@H](O)C1C(C)(C)CC[C@H](O)[C@@]12C (some centres not stated) [euspeclibcmpd1678] -0.485
C[N+](C)(C)CCOC(N)=O [euspeclibcmpd43] -0.767
Nc1ccc(S(=O)(=O)N=c2ccc(Cl)n[nH]2)cc1 [euspeclibcmpd398] -0.684
CCC(C)C(NC)C(=O)O (configuration not stated) [euspeclibcmpd1796] -0.00697
O=C(O)CCC(=O)c1ccc(-c2ccccc2)cc1 [euspeclibcmpd367] 0.00216
CN(C)CCc1c[nH]c2ccc(CS(=O)(=O)N3CCCC3)cc12 [euspeclibcmpd715] -0.352
CC(C)NNC(=O)c1ccncc1 [euspeclibcmpd1037] 0.415
CCCNCCCCCC[N+](C)(C)C [euspeclibcmpd616] 1.43
CCOC(N)=O [euspeclibcmpd570] -0.191
NC(=O)c1cc[n+](C=C2CSC3C(NC(=O)Cc4cccs4)C(=O)N3C2C(=O)O)cc1 (configuration not stated) [euspeclibcmpd1236] -0.488
CC(=O)OC1CCC23C(=O)OC45CCC(c6coc(O)c6)C4(C)CCC2C5CCC3(O)C1 (configuration not stated) [euspeclibcmpd1387] -1.25
OC(CCN1CCCCC1)(c1ccccc1)c1ccccc1 [euspeclibcmpd1117] -0.61
CC1(C)O[C@@H]2[C@@H](CO[C@@]3(COS(N)(=O)=O)OC(C)(C)O[C@@H]23)O1 [euspeclibcmpd870] 0.206
CCN(CC)CCNC(=O)c1cc(Br)c(N)cc1OC [euspeclibcmpd1122] 0

Srxn1-GFP intensity median modified Z-score, active:
COC(=O)/C=C/C(=O)OC [euspeclibcmpd923] 6.34
Cc1nc2sccn2c(=O)c1CCN1CCC(=C(c2ccc(F)cc2)c2ccc(F)cc2)CC1 [euspeclibcmpd532] 7.86
O=C1c2cccc(O)c2C(=O)c2c(O)cccc21 [euspeclibcmpd3] 19.4

From the supplement of paper PMC10498489
